# Measured values: publication PMC12820563, “FoxP3 forms a head-to-head dimer in vivo and stabilizes its multimerization on adjacent microsatellites”
# This is one part of the list.
# Target: T1, MBP-FoxP1dN (Mus musculus, UniProt P58462 326-579)
# T1 sequence: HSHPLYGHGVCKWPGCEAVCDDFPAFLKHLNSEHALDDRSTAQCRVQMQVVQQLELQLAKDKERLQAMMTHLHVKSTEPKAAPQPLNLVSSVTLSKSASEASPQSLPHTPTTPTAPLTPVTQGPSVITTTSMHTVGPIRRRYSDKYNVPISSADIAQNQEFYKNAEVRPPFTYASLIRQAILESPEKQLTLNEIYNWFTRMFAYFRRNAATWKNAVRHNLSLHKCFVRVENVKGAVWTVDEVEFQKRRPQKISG
# Experiment: PD-seq (MBP pull-down with sequencing); 20 mM Tris-HCl pH 7.5, 100 mM NaCl, 1.5 mM MgCl2, 0.4 uM protein, 0.1 uM dsDNA library, 30 min, room temperature, amylose pull-down; high values mean tight binding
# Conditions: protein: recombinant; tags: His6-MBP; chain copies: 2; dsDNA, one strand shown
# In short: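 Binding is reads-per-million enrichment of pull-down over input, with replicates pooled. It comes from 30 min room-temperature incubation in Tris pH 7.5 buffer with NaCl and MgCl2 of 0.4 µM His6-MBP-tagged, N-terminally truncated mouse FoxP3 or FoxP1 fragment from E. coli with 0.1 µM Klenow-filled degenerate double-stranded DNA library, followed by amylose resin capture, three washes and Illumina sequencing of the released DNA.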
row,Sequence,binding signal
1,GATGATTGTTCTCCCAGCTGATGAATTTGCTTAATCGAGTAAACAAATTTTCCTAATCTTTCTGTTCAAGCGCCATCTAC,1.15 RPM ratio (pull-down/input)
2,GATGATTGTTCTCCCAGCTGATGAATTGTTTAGATCGAGTAAACAAATTTTCCTAATCTTTCTGTTCAAGCGCCATCTAC,2.19 RPM ratio (pull-down/input)
3,GATGATTGTTCTCCCAGCTGATGAATTAGACCACTCGAGTAAACAAATTTTCCTAATCTTTCTGTTCAAGCGCCATCTAC,0.858 RPM ratio (pull-down/input)
4,GATGATTGTTCTCCCAGCTGATGAATTGTTTACTTCGAGTAAACAAATTTTCCTAATCTTTCTGTTCAAGCGCCATCTAC,2.82 RPM ratio (pull-down/input)
5,GATGATTGTTCTCCCAGCTGATGAATTGCTCGGGTCGAGTAAACAAATTTTCCTAATCTTTCTGTTCAAGCGCCATCTAC,0.909 RPM ratio (pull-down/input)
6,GATGATTGTTCTCCCAGCTGATGAATTTTACGTGTCGAGTAAACAAATTTTCCTAATCTTTCTGTTCAAGCGCCATCTAC,0.853 RPM ratio (pull-down/input)
7,GATGATTGTTCTCCCAGCTGATGAATTGGTATTCTCGAGTAAACAAATTTTCCTAATCTTTCTGTTCAAGCGCCATCTAC,1.02 RPM ratio (pull-down/input)
8,GATGATTGTTCTCCCAGCTGATGAATTAATTTCGTCGAGTAAACAAATTTTCCTAATCTTTCTGTTCAAGCGCCATCTAC,0.944 RPM ratio (pull-down/input)
9,GATGATTGTTCTCCCAGCTGATGAATTGACTCACTCGAGTAAACAAATTTTCCTAATCTTTCTGTTCAAGCGCCATCTAC,0.92 RPM ratio (pull-down/input)
10,GATGATTGTTCTCCCAGCTGATGAATTTGCTCTTTCGAGTAAACAAATTTTCCTAATCTTTCTGTTCAAGCGCCATCTAC,0.972 RPM ratio (pull-down/input)
11,GATGATTGTTCTCCCAGCTGATGAATTTATTGGCTCGAGTAAACAAATTTTCCTAATCTTTCTGTTCAAGCGCCATCTAC,1.09 RPM ratio (pull-down/input)
12,GATGATTGTTCTCCCAGCTGATGAATTGGTGGGCTCGAGTAAACAAATTTTCCTAATCTTTCTGTTCAAGCGCCATCTAC,0.802 RPM ratio (pull-down/input)
13,GATGATTGTTCTCCCAGCTGATGAATTGATTGGCTCGAGTAAACAAATTTTCCTAATCTTTCTGTTCAAGCGCCATCTAC,0.957 RPM ratio (pull-down/input)
14,GATGATTGTTCTCCCAGCTGATGAATTGTGCTGGTCGAGTAAACAAATTTTCCTAATCTTTCTGTTCAAGCGCCATCTAC,0.972 RPM ratio (pull-down/input)
15,GATGATTGTTCTCCCAGCTGATGAATTCGCACAATCGAGTAAACAAATTTTCCTAATCTTTCTGTTCAAGCGCCATCTAC,1.15 RPM ratio (pull-down/input)
16,GATGATTGTTCTCCCAGCTGATGAATTATGAGGGTCGAGTAAACAAATTTTCCTAATCTTTCTGTTCAAGCGCCATCTAC,0.838 RPM ratio (pull-down/input)
17,GATGATTGTTCTCCCAGCTGATGAATTCATCAGATCGAGTAAACAAATTTTCCTAATCTTTCTGTTCAAGCGCCATCTAC,0.931 RPM ratio (pull-down/input)
18,GATGATTGTTCTCCCAGCTGATGAATTACCGTGGTCGAGTAAACAAATTTTCCTAATCTTTCTGTTCAAGCGCCATCTAC,0.89 RPM ratio (pull-down/input)
19,GATGATTGTTCTCCCAGCTGATGAATTGTAGGTTTCGAGTAAACAAATTTTCCTAATCTTTCTGTTCAAGCGCCATCTAC,1.01 RPM ratio (pull-down/input)
20,GATGATTGTTCTCCCAGCTGATGAATTCTACATCTCGAGTAAACAAATTTTCCTAATCTTTCTGTTCAAGCGCCATCTAC,0.9 RPM ratio (pull-down/input)

row,Sequence,binding signal
1,GATGATTGTTCTCCCAGCTGATGAATTGTACGTGTCGAGTAAACAAATTTTCCTAATCTTTCTGTTCAAGCGCCATCTAC,0.946 RPM ratio (pull-down/input)
2,GATGATTGTTCTCCCAGCTGATGAATTTATAGAGTCGAGTAAACAAATTTTCCTAATCTTTCTGTTCAAGCGCCATCTAC,1.06 RPM ratio (pull-down/input)
3,GATGATTGTTCTCCCAGCTGATGAATTCTATCCCTCGAGTAAACAAATTTTCCTAATCTTTCTGTTCAAGCGCCATCTAC,0.859 RPM ratio (pull-down/input)
4,GATGATTGTTCTCCCAGCTGATGAATTACGACAGTCGAGTAAACAAATTTTCCTAATCTTTCTGTTCAAGCGCCATCTAC,1.03 RPM ratio (pull-down/input)
5,GATGATTGTTCTCCCAGCTGATGAATTGTACTAGTCGAGTAAACAAATTTTCCTAATCTTTCTGTTCAAGCGCCATCTAC,0.939 RPM ratio (pull-down/input)
6,GATGATTGTTCTCCCAGCTGATGAATTTAGTTGGTCGAGTAAACAAATTTTCCTAATCTTTCTGTTCAAGCGCCATCTAC,1.03 RPM ratio (pull-down/input)
7,GATGATTGTTCTCCCAGCTGATGAATTACACGAATCGAGTAAACAAATTTTCCTAATCTTTCTGTTCAAGCGCCATCTAC,1.2 RPM ratio (pull-down/input)
8,GATGATTGTTCTCCCAGCTGATGAATTTCCAAGGTCGAGTAAACAAATTTTCCTAATCTTTCTGTTCAAGCGCCATCTAC,0.753 RPM ratio (pull-down/input)
9,GATGATTGTTCTCCCAGCTGATGAATTGCGCATTTCGAGTAAACAAATTTTCCTAATCTTTCTGTTCAAGCGCCATCTAC,1.43 RPM ratio (pull-down/input)
10,GATGATTGTTCTCCCAGCTGATGAATTCCGGACTTCGAGTAAACAAATTTTCCTAATCTTTCTGTTCAAGCGCCATCTAC,0.729 RPM ratio (pull-down/input)
11,GATGATTGTTCTCCCAGCTGATGAATTGGGCCAATCGAGTAAACAAATTTTCCTAATCTTTCTGTTCAAGCGCCATCTAC,0.962 RPM ratio (pull-down/input)
12,GATGATTGTTCTCCCAGCTGATGAATTCGTTAATTCGAGTAAACAAATTTTCCTAATCTTTCTGTTCAAGCGCCATCTAC,0.967 RPM ratio (pull-down/input)
13,GATGATTGTTCTCCCAGCTGATGAATTTCTATTGTCGAGTAAACAAATTTTCCTAATCTTTCTGTTCAAGCGCCATCTAC,1.91 RPM ratio (pull-down/input)
14,GATGATTGTTCTCCCAGCTGATGAATTGCCGCTGTCGAGTAAACAAATTTTCCTAATCTTTCTGTTCAAGCGCCATCTAC,0.966 RPM ratio (pull-down/input)
15,GATGATTGTTCTCCCAGCTGATGAATTAGACTGTTCGAGTAAACAAATTTTCCTAATCTTTCTGTTCAAGCGCCATCTAC,0.876 RPM ratio (pull-down/input)
16,GATGATTGTTCTCCCAGCTGATGAATTAATGGCCTCGAGTAAACAAATTTTCCTAATCTTTCTGTTCAAGCGCCATCTAC,0.913 RPM ratio (pull-down/input)
17,GATGATTGTTCTCCCAGCTGATGAATTCATCAATTCGAGTAAACAAATTTTCCTAATCTTTCTGTTCAAGCGCCATCTAC,0.956 RPM ratio (pull-down/input)
18,GATGATTGTTCTCCCAGCTGATGAATTCCTCCTTTCGAGTAAACAAATTTTCCTAATCTTTCTGTTCAAGCGCCATCTAC,0.796 RPM ratio (pull-down/input)
19,GATGATTGTTCTCCCAGCTGATGAATTAGAGTAATCGAGTAAACAAATTTTCCTAATCTTTCTGTTCAAGCGCCATCTAC,1.45 RPM ratio (pull-down/input)
20,GATGATTGTTCTCCCAGCTGATGAATTTACGTCGTCGAGTAAACAAATTTTCCTAATCTTTCTGTTCAAGCGCCATCTAC,1.25 RPM ratio (pull-down/input)
